# Source: ChEMBL document CHEMBL5308541, “MAIP: An Open-Source Tool to Enrich High-Throughput Screening Output and Identify Novel, Druglike Molecules with Antimalarial Activity” (ACS Med Chem Lett, 2023)
# Out of some 150,000 compounds screened, about 540 (0.36%) showed an effect of 50% or more. This is one part of the list.
# Test system: Plasmodium falciparum
# Experiment: Primary screen in NF54 nanoGlo assay, in single point, at 2uM, 72h; a lower Z score goes with more inhibition
# Assay type: functional, Erythrocyte
# Details: timepoint 72 hour
SMILES,% Inhibition [%],Z score
Cc1c(C#N)c(NCc2cc(O[C@H]3CCNC3)ccn2)nc2ccccc12,0,0.02
C[C@H]1CCN(C(=O)Nc2cn(C)nc2-c2ccccc2)CC12CCC2,-9,1.35
C[C@@H](CCC(=O)Nc1cccc(-c2c[nH]cn2)c1)N1CCN(C)CC1,-6,0.98
O=c1cc(CN2CCN(C3CCCCC3)CC2)nc(N2CCCN(Cc3cccc(C(F)(F)F)c3)CC2)[nH]1,13,-2.2
CN(C)CCCN=C(N)NCC1CCC1,-4,0.82
Fc1cccc([C@@H]2CCCN2c2cc(N3CCOCC3)ncn2)c1,13,-2.21
COc1cccc(NC(=O)C[C@H]2COCCN2C(=O)Cc2ccncc2)c1,3,-0.5
O=C(CN1CCC(CN2CCOCC2)CC1)NC[C@@H](c1ccccc1Cl)N1CCCC1,-3,0.6
COc1cc(Nc2nc3ccccc3s2)ccc1NC(C)=O,-5,0.84
O=C(NC1CC1)[C@@H](OCc1nc2cccc(F)c2[nH]1)C1CCN(Cc2nc3c(F)cccc3[nH]2)CC1,-9,1.51
CN1CCN(CCNC2CCN3CCCC3C2)C(c2ccccc2)C1 (configuration not stated),29,-5.14
COc1ccc(Nc2cc(NC[C@@H](CO)c3cccnc3)ncn2)c(OC)c1,-6,0.87
CC(C)c1noc(-c2ccc(NC3CCN(Cc4ccncc4)CC3)nc2)n1,-16,2.72
O=C(NCCN1CCOCC1)c1ccc(NC2CCC3CN(Cc4ccccc4)CC32)cc1 (configuration not stated),9,-1.97
c1nc(NCc2csc(N3CCCC3)n2)c2[nH]ccc2n1,3,-0.67
Cc1ccc(S(=O)(=O)NCCNC(=O)CCc2ccc3[nH]ccc3c2)cc1,-7,1.6
CCc1ccc([C@@H](O)CNC2CCN(CC(F)F)CC2)cc1,2,-0.37
CCNC(=O)c1ccc(NC2CCN(C3CCCC3)CC2)nc1,-13,2.21
CN(C[C@]1(O)CCN(Cc2ccccc2)C1)c1ncnc2[nH]ccc12,-4,0.66
CCN(C)[C@@H](C)CCNC(=O)c1ccc(-c2ccccc2C(=O)NC)cc1,1,-0.09
COC(=O)CC1(NC(=O)c2ccc(F)cc2Cl)CCN(C)CC1,-11,1.89

SMILES,% Inhibition [%],Z score
Fc1ccccc1-c1n[nH]c2c1CN(Cc1cccc3ncccc13)CC2,-1,0.18
Fc1ccc2ncnc(NC3CCN(C[C@H]4CCOC4)CC3)c2c1,-10,2.15
COc1nc2ccccc2cc1-c1c(-c2ccccc2)ncn1CCc1c[nH]cn1,1,-0.13
Cc1cc(CN=C(N)N2CCCCCC2)on1,-5,1.04
FC(F)(F)CCN1CCC(N[C@H]2CCN(c3ccccc3)C2)CC1,-4,0.93
CC(C)CNc1nccc(Nc2ccc(O)c(C(=O)O)c2)n1,-4,0.77
CCn1nc(C)c2c(C(=O)N[C@@H](C)c3ccc(N4CCCCC4)cc3)cc(C)nc21,-7,1.14
CN(C)C(=O)c1ccc(-c2cc(NCc3ccncc3)nc3[nH]ccc23)o1,-8,1.37
CN(C[C@H]1CCCN1c1cccnn1)c1ncnc2[nH]ccc12,8,-1.72
CC1(C)O[C@H]2C[C@H](NCC(O)COc3ccc4cc[nH]c4c3)C[C@H]2O1 (some centres not stated),0,0.04
Cc1cccc(N2CCN(Cc3nc(-c4cccc(Oc5ccccc5)c4)oc3C)CC2)n1,0,0.08
NC(=O)C[C@H](Nc1ncnc2sc(-c3ccccc3)cc12)C1CCOCC1,-10,1.75
FC(F)(F)COc1cccc(CNc2ncnc3sccc23)n1,4,-0.82
COc1ccccc1NC(=O)c1ccc(Nc2nc3ccc(Cl)cc3o2)cc1,1,-0.14
CC12CN(C(=O)Nc3cnn(CC(=O)NC4CC4)c3)CC1C1CCC2C1 (configuration not stated),7,-1.54
C[C@H]1CN(C2CCOCC2)CCN1S(=O)(=O)c1cnc2onc(-c3ccccc3)c2c1,1,-0.29
Nc1nccc(N2CCC(N3CCN(c4ccccc4F)CC3)C(O)C2)n1 (configuration not stated),7,-1.42
CC(C)N1CCC[C@H](CNc2ncnc3[nH]ccc23)C1,-5,0.73
C[C@H]1CCCCN1CCC1CCN(Cc2ccnc(N)c2)CC1,4,-0.82
c1ccc2c(CN3CCC[C@H]3c3nc(-c4ccc(OC5CCCCC5)nc4)no3)c[nH]c2c1,-13,1.98
CCN1CCC(CCNC2CCN(CC(F)F)CC2)CC1,10,-2.05

SMILES,% Inhibition [%],Z score
Cc1nc(N2CCOCC2)ccc1N[C@H]1CCN(CC(F)(F)F)C1,-4,0.61
Cn1nccc1-c1ccnc(N[C@H]2CCN(C(=O)OC(C)(C)C)C2)n1,-11,2.46
CCCN(C(=O)CCc1nc(-c2ccco2)no1)C1CC(OCC)C12CCCCC2 (configuration not stated),-17,3.28
CCn1cc(-c2cc(C(=O)N(C)C[C@H]3CCCN3C)c3ccc(F)cc3n2)cn1,-8,1.38
Cc1nc(N)nc(N2CCO[C@@H](Cc3noc(-c4ccccn4)n3)C2)c1C,4,-0.85
N#Cc1ccc(CN2CC[C@@H]3CNC[C@@H]3CC2)c(C(F)(F)F)c1,3,-0.51
Cc1cc(CC2CN(C(=O)c3cc4ccccc4n3C)CC2O)on1 (configuration not stated),-7,1.61
CC1(C)[C@@H]2CC[C@H](CNc3ncnc4c3CCNC4)[C@H]1C2,11,-1.74
O=S(=O)(Nc1cccc(C(F)(F)F)c1)c1ccc2[nH]c(-c3ccc4c(c3)OC(F)(F)O4)nc2c1,0,0.05
CCN1CCN([C@H]2CCN(c3nc(C(C)C)nc4[nH]ccc34)C2)CC1,-1,0.16
Cc1noc(C)c1NC(=O)c1cccc(S(=O)(=O)N(C)Cc2cc[nH]n2)c1,5,-1.1
CCN1CCN(C[C@H](O)COc2ccc(CNCCCN3CCCC3=O)cc2OC)CC1,-4,0.81
O=C1Cc2cccc(c2)Oc2cccc(c2)COC2CN(c3cncc(C(=O)N4CCCC4)n3)CC2N1 (configuration not stated),7,-1.12
COc1ccc2[nH]c(CN3CCC[C@H](N4CCN(c5ccccc5)CC4)C3)c(C)c2c1,-4,0.66
CO[C@H]1C[C@@H](CNc2nccc(OC(C)C)n2)N(c2cc(C)ncn2)C1,-1,0.17
CCNC(=O)c1ccc(NC(=O)NCCCn2ccnn2)cc1,-5,0.77
O=C1CN(CCCN[C@H]2CCN(c3ccccc3)C2)CCN1,-2,0.37
Cc1nccn1Cc1ccc(NCc2cccc3cccnc23)cc1,-7,1.55
COc1ccc(-c2ccc(C(=O)N3Cc4[nH]cnc4C[C@H]3C(=O)O)o2)cc1,-10,1.78
O=C(Nc1ccc(N2CCNCC2)cn1)c1cc2n(n1)CC1(CCNCC1)OC2,-7,1.3
CC1CCC(C)N1CCN1CCN(CCOc2cccc(F)c2)CC1 (configuration not stated),4,-0.88

SMILES,% Inhibition [%],Z score
CCN1CC(Nc2nc(N)nc3c2CCNCC3)C(OC)C1 (configuration not stated),6,-1.02
O=C(c1cc2occc2[nH]1)N1CCN(C2CCCCC2)CC1,-11,1.97
OC1CN(Cc2cnc(C3CCCCC3)nc2)CCC1Nc1ncccn1 (configuration not stated),49,-7.39
CN(CCCN1CCCCCC1)C(=O)c1ccc(-c2cnc(N)cn2)cc1,4,-0.83
O=C(c1cccnc1Nc1cccc(F)c1)N1CC[C@H](Oc2ccc(C(F)(F)F)cn2)C1,-2,0.44
O=C(c1cccc(OCCc2ccccc2)c1)N1CC2COCCC2(C(=O)O)C1 (configuration not stated),-3,0.52
COc1cccc(S(=O)(=O)N2C3CCC2CC(n2cc(Br)cn2)C3)c1 (configuration not stated),-8,1.17
c1cc([C@H](CNc2ncnc3c2CCNCC3)N2CCOCC2)ccn1,-3,0.59
CC(=O)Nc1cccc(Nc2ncncc2-c2nc(-c3ccccc3F)no2)c1,-3,0.55
CC(C)(C)OC(=O)N1C2CCC1CC(Nc1cccc(N3CCCCC3)c1)C2 (configuration not stated),-16,2.72
COc1ccc(NC(C)(C)C(=O)NCc2c(C)ccc3ncccc23)cc1,1,-0.14
CCc1cc(N2CCN(c3nccc(-c4cccnc4)n3)CC2)ncn1,-3,0.57
CC1CC(c2ccc(F)cc2)CN1C(=O)c1ccc(C(=O)O)nc1 (configuration not stated),-4,0.76
O[C@H](COc1ccccc1CNCc1cc(-c2ccccc2)[nH]n1)CN1CCCCC1,32,-5.52
COCCN1CCC[C@H](CNc2nc(C)nc3ccccc23)C1,3,-0.62
COc1ccc(-c2[nH]c3ccccc3c2CCC(=O)N[C@H]2CCCc3[nH]c(=O)c(C(N)=O)cc32)cc1,-2,0.3
O=C(Nc1cccc(N2CCC(NCC3(c4ccccc4)CCOCC3)CC2)c1)c1ccncc1,4,-0.72
Cc1[nH]c(-c2ccccc2)nc1C(=O)N1CCN(CCN2CCCC2)CC1,-7,1.3
